Assay results published in PubChem BioAssay AID596 (National Center for Advancing Translational Sciences (NCATS), 2007).
In all, about 71,000 compounds went through this assay and about 1,400 (2%) were called active. The inconclusive results got no clear call from the source; some entries with a clear call stand among them for comparison. Calls come from the whole dose curve; as a rule, active = well fitted curve in the direction sought with a large enough effect; inconclusive = small, poorly fitted or top-dose-only effect; inactive = no such curve, though single readings can be large or run the other way. Potencies beside an inconclusive call are fits to weak or partial responses and may not hold up.

These molecules were tested against Microtubule-associated protein tau (Homo sapiens) (UniProt P10636) (assay: qHTS Assay for Tau Filament Binding). Details: recombinant tau filaments, thioflavin S fluorescence, 15 h, filaments grown with octadecylsulfate alongside compound; series mostly up to 57.1 µM; activity change, negative = inhibition: at the top concentration.
Summary of the method: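 ThS-based fibril read: tau 1 uM final, inducer ODS 30 uM final, 37 C for 15 h, ex 450/em 510 nm.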
% is set by controls: 0 for no effect and ±100 for the full control effect; potency is the fitted concentration of half-maximal effect.
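Note: actives lower thioflavin S fluorescence by blocking filaments or displacing dye.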

Chain of UniProt P10636 (P10636 whole entry, looked up): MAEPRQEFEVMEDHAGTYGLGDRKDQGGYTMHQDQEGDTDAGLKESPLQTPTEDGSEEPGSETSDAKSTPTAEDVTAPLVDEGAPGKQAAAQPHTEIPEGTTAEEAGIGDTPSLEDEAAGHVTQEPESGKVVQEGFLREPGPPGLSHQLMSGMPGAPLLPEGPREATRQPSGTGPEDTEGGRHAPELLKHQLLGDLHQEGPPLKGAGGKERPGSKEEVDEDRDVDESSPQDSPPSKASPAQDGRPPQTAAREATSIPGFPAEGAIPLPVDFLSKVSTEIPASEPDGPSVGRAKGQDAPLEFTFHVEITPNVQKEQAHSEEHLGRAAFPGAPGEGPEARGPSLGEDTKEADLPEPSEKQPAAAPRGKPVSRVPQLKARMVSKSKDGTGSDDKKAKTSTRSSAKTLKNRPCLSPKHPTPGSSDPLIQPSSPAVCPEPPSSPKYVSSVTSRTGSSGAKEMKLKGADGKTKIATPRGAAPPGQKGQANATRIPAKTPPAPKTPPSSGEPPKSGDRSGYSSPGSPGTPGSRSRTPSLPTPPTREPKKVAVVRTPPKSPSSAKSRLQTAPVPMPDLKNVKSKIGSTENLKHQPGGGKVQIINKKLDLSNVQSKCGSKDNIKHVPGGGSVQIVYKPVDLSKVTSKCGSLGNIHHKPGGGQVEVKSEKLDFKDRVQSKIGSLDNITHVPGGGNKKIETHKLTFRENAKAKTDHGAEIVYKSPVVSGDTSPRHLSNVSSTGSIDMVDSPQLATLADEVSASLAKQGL

| Structure (SMILES) | Potency | activity change, negative = inhibition |
| --- | --- | --- |
| O=c1ccc2c(o1)/C(=C/C=C(Cl)Cl)CCC2 | active: 2 µM |  |
| Oc1c(-c2cc(-c3ccco3)[nH]n2)ccc2ccccc12 | active: 15.8 µM |  |
| CC(C)Cn1c(N)c(C(=O)COC(=O)c2cc(-c3ccco3)nc3ccccc23)c(=O)n(C)c1=O | active: 12.6 µM |  |
| CN1CCN(S(=O)(=O)c2ccc(NC(=O)C3CCCO3)cc2)CC1 (centres undefined) | inconclusive: 31.6 µM [decreasing] |  |
| O=C(Nc1cccc(Oc2ccc3c(c2)C(=O)NC3=O)c1)c1ccco1 | active: 25.1 µM |  |
| O=C(c1c(O)c2ccc(Cl)cc2[nH]c1=O)C1CC1 |  | inactive: -27.3% |
| COc1ncc2nc(-c3cc(F)cc(F)c3)c(=O)n(CCc3ccccc3)c2n1 | inconclusive: 31.6 µM [decreasing] |  |
| CN(C)Cc1c(O)ccc2occ(C(O)c3ccccc3)c12 (centres undefined) | inconclusive: 39.8 µM [decreasing] |  |
| Cn1ccc(O)c(C#N)c1=O | inconclusive: 39.8 µM [decreasing] |  |
| COc1cccc(-c2cc(=O)c3ccccc3o2)c1N | inconclusive: 31.6 µM [decreasing] |  |
| COCC(C)OC(=O)C(C#N)c1nc2ccccc2nc1N1CCN(Cc2ccccc2)CC1 (centres undefined) | active: 3.16 µM |  |
| C=CCn1cnc2c(c1=O)c1nc3ccccc3nc1n2/N=C/c1ccccn1 | inconclusive: 10 µM [decreasing] |  |
| O=C1c2ccccc2C(=O)c2c1ccc(C(=O)O)c2-c1ccc2ccccc2c1 | active: 3.16 µM |  |
| NC[C@](O)(CS(=O)(=O)O)c1ccc(Cl)cc1 | inconclusive: 39.8 µM [decreasing] |  |
| Cc1ccc(NC(=O)N2CCCN(Cc3ccc(F)cc3)C2)cc1C | inconclusive: 20 µM [decreasing] |  |
| O=C(CSC1=NCCN1)Nc1ccccc1 |  | inactive: 0.9% [at 11.4 µM] |
| C[C@](O)(C(=O)Nc1ccc(S(=O)(=O)c2ccccc2)cc1)C(F)(F)F | inconclusive: 39.8 µM [decreasing] |  |
| COc1ccc(N2CCN(c3cc(C)c4ccc(O)cc4n3)CC2)cc1 | inconclusive: 39.8 µM [decreasing] |  |
| CN=C(NC#N)NCCSCc1csc(N=C(N)N)n1 | inconclusive: 39.8 µM [decreasing] |  |
| CN1CCN(CCCN2c3ccccc3Sc3ccc(C(F)(F)F)cc32)CC1 | inconclusive: 10 µM [decreasing] |  |
| COC(=O)Nc1nc2ccc(C(=O)c3cccs3)cc2[nH]1 | inconclusive: 39.8 µM [decreasing] |  |
| O=C(CCc1ccc(O)cc1)c1c(O)cc(O)cc1O | inconclusive: 39.8 µM [decreasing] |  |
| CC(=O)/C(C)=N\O | inconclusive: 39.8 µM [decreasing] |  |
| O=c1[nH]c2cc([N+](=O)[O-])c([N+](=O)[O-])cc2[nH]c1=O | inconclusive: 39.8 µM [decreasing] |  |
| N#CCCn1c(=O)c(-c2ccc(Cl)cc2)nc2cnc(N3CCNCC3)nc21 | active: 3.98 µM |  |
| O=C1c2[nH]nc(-c3ccccc3O)c2C(c2ccc(F)cc2)N1Cc1ccco1 (centres undefined) |  | inactive: -13.9% |
| CCCCn1c(SCC(=O)OC)nc2c1c(=O)n(C)c(=O)n2C |  | inactive: -8.7% |

| Structure (SMILES) | Potency | activity change, negative = inhibition |
| --- | --- | --- |
| CC(C)CC(=O)Nc1ccc(-c2cn3ccsc3n2)cc1 | active: 12.6 µM |  |
| CCCCc1c(C)nn(-c2nnc3c4ccccc4n(CC)c3n2)c1C | active: 2 µM |  |
| Cc1c(C(=O)NN2CCCCC2)nn(-c2ccc(Cl)cc2Cl)c1-c1ccc(I)cc1 | inconclusive: 39.8 µM [decreasing] |  |
| C=CCSC1=N/C(=C\c2ccsc2)C(=O)S1 | inconclusive: 20 µM [decreasing] |  |
| Cc1ccc2[nH]c(=O)c(-c3nc4c(C)cccn4c3NCc3ccco3)cc2c1 | inconclusive: 25.1 µM [decreasing] |  |
| CCN1CC2=C(OC(N)=C(C#N)C2c2cccs2)/C(=C/c2cccs2)C1 (centres undefined) | inconclusive: 7.94 µM [decreasing] |  |
| Oc1ccccc1CNCCCNCc1ccccc1O | inconclusive: 15.8 µM [decreasing] |  |
| NC1CCN(c2cccc(Cl)n2)CC1 | inconclusive: 39.8 µM [decreasing] |  |
| CCC/C=C(\CCC)C(NS(=O)(=O)c1ccc(Cl)cc1)c1ccccc1 (centres undefined) | inconclusive: 10 µM [decreasing] |  |
| COc1ccccc1-c1nc(NCc2cccnc2)c2ccccc2n1 | inconclusive: 25.1 µM [decreasing] |  |
| Nc1ccc(N2CCOCC2)c(Cl)c1 | inconclusive: 39.8 µM [decreasing] |  |
| CCOC(=O)C1CCCN(CCC(=O)Nc2ccc3c(c2)CCC3)C1 (centres undefined) | inconclusive: 3.16 µM [decreasing] |  |
| N[C@@H](C(=O)O)c1ccc(C(=O)O)c(O)c1 | inconclusive: 39.8 µM [decreasing] |  |
| Cc1ccc2[nH]c3c(c2c1)CN(C(=O)CN1CCN(c2cccc(C)c2C)CC1)CC3 |  | inactive: 266% |
| CC(C)(C)NC(=O)Cn1nnc(-c2cccs2)n1 | inconclusive: 31.6 µM [decreasing] |  |
| O=c1c(-c2cc(F)cc(F)c2)nc2cnc(N3CCNCC3)nc2n1Cc1cccs1 | inconclusive: 3.16 µM [decreasing] |  |
| CN(C)c1ccc(C(=O)c2ccc(N(C)C)c(N)c2)cc1N | inconclusive: 39.8 µM [decreasing] |  |
| C1COC(NC(C2CC2)C2CC2)=N1 | inconclusive: 39.8 µM [decreasing] |  |
| C[C@](N)(COP(=O)(O)O)C(=O)O | inconclusive: 39.8 µM [decreasing] |  |
| CCC(CC)COC(=O)C(C#N)c1nc2ccccc2nc1N1CCOCC1 (centres undefined) | active: 3.16 µM |  |
| O=c1cc(-c2ccc(O)cc2O)oc2ccccc12 | inconclusive: 31.6 µM [decreasing] |  |
| O=c1c(-c2ccc(Cl)cc2)nc2cncnc2n1Cc1ccc(F)cc1 | inconclusive: 3.16 µM [decreasing] |  |
| NS(=O)(=O)c1cc2c(cc1Cl)N[C@H](Cc1ccccc1)NS2(=O)=O |  | inactive: 5.7% [at 11.4 µM] |
| CN1CCN(c2nc3ccccc3nc2C(C#N)C(=O)OC2CCCCC2)CC1 (centres undefined) | active: 0.631 µM |  |
| O=C(CSc1nc2ccc([N+](=O)[O-])cc2s1)c1ccc2ccccc2c1 | inconclusive: 7.94 µM [decreasing] |  |
| CO[C@H]1/C=C/O[C@@]2(C)Oc3c(C)c(O)c4c(O)c(c5c(c4c3C2=O)NC2(CCN(CC(C)C)CC2)N=5)=NC(=O)/C(C)=C\C=C\[C@H](C)[C@H](O)[C@@H](C)[C@@H](O)[C@@H](C)[C@H](OC(C)=O)[C@@H]1C | active: 0.398 µM |  |
| CSc1cccc(NS(=O)(=O)c2cccc3nsnc23)c1 | inconclusive: 20 µM [decreasing] |  |

| Structure (SMILES) | Potency | activity change, negative = inhibition |
| --- | --- | --- |
| CC1(C)CC(=O)c2c(nc3ccccc3c2N)C1 | inconclusive: 31.6 µM [decreasing] |  |
| O=C(O)c1cccc(N=Nc2c(S(=O)(=O)O)ccc3c2C(=O)c2ccccc2C3=O)c1O | active: 3.16 µM |  |
| CCCC(=O)Nc1cc(OCC)c(NC(=O)NC2CCCCC2)cc1OCC |  | inactive: 0.7% |
| CCOC(=O)c1ccc(NC(=O)CSc2nc(C)cc(=O)[nH]2)cc1 | inconclusive: 39.8 µM [decreasing] |  |
| COc1ccc(CNc2cc(C)ccc2C)c(OC)c1OC | inconclusive: 31.6 µM [decreasing] |  |
| C=CCn1c(=O)/c(=C/c2cc(OC)c(OC)c(OC)c2)s/c1=C(/C#N)c1nc2ccccc2n1C | inconclusive: 0.1 µM [decreasing] |  |
| Oc1c(C(O)(c2ccccc2)c2ccc3ccccc3c2O)ccc2ccccc12 | active: 1.26 µM |  |
| O=C1CN(CC(=O)N2CCOCC2)c2ccccc2O1 | inconclusive: 25.1 µM [decreasing] |  |
| CCOC(=O)c1c(N)n(CCOC(=O)c2cccs2)c2nc3ccccc3nc12 |  | inactive: 0.1% |
| CC[C@H]1C(=O)OC[C@@H]1Cc1cncn1C | inconclusive: 39.8 µM [decreasing] |  |
| COCCn1nnnc1C(c1ccccc1OC)N1CCN(c2ccccc2F)CC1 (centres undefined) |  | inactive: 6% |
| CC(=O)[C@H](CC(C)C)NC(=O)[C@@H](CC(C)C)NC(=O)[C@H](CC(C)C)NC(=O)OCc1ccccc1 | inconclusive: 39.8 µM [decreasing] |  |
| COc1cccc(NC(=O)CN(c2cccc(F)c2)S(C)(=O)=O)c1 | inconclusive: 25.1 µM [decreasing] |  |
| COC(=O)c1ccc2c(c1)SC1=C(CCCC1=O)N2 | active: 15.8 µM |  |
| C[C@](N)(Cc1ccc(O)c(O)c1)C(=O)O | inconclusive: 39.8 µM [decreasing] |  |
| C1=Nc2c(Nc3ccccc3)ncnc2Oc2ccccc21 | inconclusive: 31.6 µM [decreasing] |  |
| CCOc1ccc2nc(NC(=O)c3ccoc3C)sc2c1 |  | inactive: 134% [at 11.4 µM] |
| c1cnc(N2CCN(Cc3ccc4c(c3)OCO4)CC2)nc1 | inconclusive: 39.8 µM [decreasing] |  |
| C=CCOc1ccccc1/C=c1\sc2nc(=O)c(C)nn2c1=O | active: 25.1 µM |  |
| O=C(c1cc2nc(-c3ccco3)cc(C(F)(F)F)n2n1)N1CCCCCC1 | active: 12.6 µM |  |
| CCOc1ccc2c(O)csc2c1 |  | inactive: -24.6% |
| Cc1c2c(nc3c(C(=O)NC4CCCCC4C)cnn13)CCCC2 (centres undefined) |  | inactive: 41.8% |
| CCN(CC(=O)Nc1c(C(=O)OC)[nH]c2ccccc12)c1ccc2c(c1)OCO2 | inconclusive: 25.1 µM [decreasing] |  |
| COc1ccc(OC)c(NC=C2C(=O)OC3(CCCCC3)OC2=O)c1 | inconclusive: 5.01 µM [decreasing] |  |
| C[C@@H]1C(=O)O[C@@H]2C[C@@]34[C@H]5C[C@@H](C(C)(C)C)[C@@]36[C@@H](OC(=O)[C@@H]6O)O[C@]4(C(=O)O5)[C@@]12O | inconclusive: 39.8 µM [decreasing] |  |
